{"source": "PubChem BioAssay AID1347165", "about": "(National Center for Advancing Translational Sciences (NCATS), 2019)", "note": "Screen size: about 220,000 compounds; about 5,700 (2.6%) were called active. The shares of active, inactive and inconclusive entries below differ from those in the screen. Calls follow the shape of the dose curve; as a rule, active = well fitted inhibition curve with a large enough effect; inconclusive = small, poorly fitted or top-dose-only effect; inactive = no such curve, though single readings can be large or run the other way. A potency beside an inconclusive call is a rough fit, not a confirmed value. Potency is read from the fitted curve at half-maximal effect; tags tell the direction and shape of the fitted curve."}
{"target": "Lysine-specific demethylase 5B (Homo sapiens) (UniProt Q9UGL1)", "sequence (Q9UGL1 whole entry, looked up)": "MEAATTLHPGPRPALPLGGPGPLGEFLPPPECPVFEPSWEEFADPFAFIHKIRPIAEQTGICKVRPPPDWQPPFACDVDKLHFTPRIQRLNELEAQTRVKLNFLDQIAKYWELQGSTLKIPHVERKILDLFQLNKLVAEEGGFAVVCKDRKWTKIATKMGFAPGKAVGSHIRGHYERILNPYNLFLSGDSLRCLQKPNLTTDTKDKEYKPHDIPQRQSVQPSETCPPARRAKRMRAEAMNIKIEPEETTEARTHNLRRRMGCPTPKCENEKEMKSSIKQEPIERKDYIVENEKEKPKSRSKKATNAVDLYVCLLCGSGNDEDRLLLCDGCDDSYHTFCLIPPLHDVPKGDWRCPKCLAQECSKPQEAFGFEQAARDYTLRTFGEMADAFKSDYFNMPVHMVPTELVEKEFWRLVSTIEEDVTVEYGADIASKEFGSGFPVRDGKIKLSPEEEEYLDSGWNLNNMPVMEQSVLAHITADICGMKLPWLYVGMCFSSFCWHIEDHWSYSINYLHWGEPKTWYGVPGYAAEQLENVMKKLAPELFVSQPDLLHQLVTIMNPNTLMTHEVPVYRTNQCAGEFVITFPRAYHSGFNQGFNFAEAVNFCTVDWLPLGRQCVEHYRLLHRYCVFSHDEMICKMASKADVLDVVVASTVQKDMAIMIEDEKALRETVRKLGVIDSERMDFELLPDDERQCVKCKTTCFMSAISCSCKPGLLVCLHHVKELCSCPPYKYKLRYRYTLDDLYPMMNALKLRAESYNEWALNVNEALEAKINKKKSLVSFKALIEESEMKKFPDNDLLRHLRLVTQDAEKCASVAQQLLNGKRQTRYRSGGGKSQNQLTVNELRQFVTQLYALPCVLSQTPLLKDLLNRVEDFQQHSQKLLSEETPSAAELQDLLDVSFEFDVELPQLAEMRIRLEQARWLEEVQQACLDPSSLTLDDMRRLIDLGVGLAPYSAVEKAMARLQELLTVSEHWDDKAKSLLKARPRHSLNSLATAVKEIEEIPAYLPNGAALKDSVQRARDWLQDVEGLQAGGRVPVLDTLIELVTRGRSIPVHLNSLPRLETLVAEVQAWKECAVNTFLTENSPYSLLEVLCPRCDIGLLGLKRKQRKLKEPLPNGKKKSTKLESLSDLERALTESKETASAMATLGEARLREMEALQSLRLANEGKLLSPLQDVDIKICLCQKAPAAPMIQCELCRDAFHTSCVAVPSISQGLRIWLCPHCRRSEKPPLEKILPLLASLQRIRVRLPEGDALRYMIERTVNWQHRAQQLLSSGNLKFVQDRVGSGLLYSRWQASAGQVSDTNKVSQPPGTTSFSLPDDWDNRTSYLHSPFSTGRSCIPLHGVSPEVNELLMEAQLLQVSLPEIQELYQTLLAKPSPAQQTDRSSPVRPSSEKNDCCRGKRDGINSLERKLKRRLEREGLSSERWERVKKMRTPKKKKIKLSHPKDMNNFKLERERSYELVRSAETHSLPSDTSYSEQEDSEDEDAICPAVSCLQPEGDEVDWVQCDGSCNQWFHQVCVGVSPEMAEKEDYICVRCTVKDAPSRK", "assay": "Primary screen for KDM5B Histone Demethylases FDH-coupled qHTS; also: nearly all actives have a fitted effect of over 70% in size", "conditions": "FDH-coupled NADH fluorescence (FDH is formaldehyde dehydrogenase); series mostly up to 57.7 µM", "method_in_brief": "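Here, H3K4me3 peptide (12.5 µM in substrate mix) is demethylated by KDM5BΔAP, 200 nM final, after 10 min compound exposure. Formaldehyde product is coupled through FDH (0.25 U/mL in mix) to NADH fluorescence; 30-min ΔRFU feeds dose-response curves.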"}
{"smiles": "COCC1CN(C)CC12CCN(S(=O)(=O)c1cccs1)CC2", "note": "(stereo not given)", "Potency": "inconclusive: 20 µM [inhibitor, partial curve, poor fit]"}
{"smiles": "O=C(c1ccsc1)N1CCC(Cc2nc(C3CCOCC3)no2)CC1", "Potency": "inconclusive: 22.4 µM [inhibitor, single point]"}
{"smiles": "C/C(N)=C(/C#N)C(NC(=O)c1ccco1)(C(F)(F)F)C(F)(F)F", "Potency": "inactive"}
{"smiles": "O=C(Cc1ccccc1)Nc1cccc(-c2nc3cccnc3s2)c1", "Potency": "inconclusive: 5.62 µM [inhibitor, partial curve, poor fit]"}
{"smiles": "Cc1nc2ccc(C(=O)N3CC[C@](C)(O)[C@@H](O)C3)cc2nc1C", "Potency": "inactive"}
{"smiles": "Cc1oc(-c2ccc(C(=O)NCc3ccccc3)cc2)nc1CS(=O)(=O)c1ccccc1", "Potency": "inconclusive: 28.2 µM [inhibitor, partial curve, poor fit]"}
{"smiles": "O=C(NCc1ccccn1)c1cccc(I)c1", "Potency": "inactive"}
{"smiles": "CCCc1noc(-c2ccn3c(CNC(=O)Cc4ccccc4Cl)nnc3c2)n1", "Potency": "active: 14.1 µM"}
{"smiles": "c1ccc(-c2noc(-c3cncnc3N3CCN(c4ccccc4)CC3)n2)cc1", "Potency": "inconclusive: 35.5 µM [inhibitor, single point]"}
{"smiles": "C[C@]1(CO)[C@H]2Cc3sc(-c4ccccc4)nc3[C@@H](CC(=O)N3CCOCC3)[C@]2(C)CC[C@H]1O", "Potency": "inconclusive: 22.4 µM [inhibitor, single point]"}
{"smiles": "Cc1ncc(CO)c2c1Oc1nc(-c3ccccc3)nc(SCC(=O)Nc3cccc(C(F)(F)F)c3)c1C2", "Potency": "inconclusive: 8.91 µM [inhibitor, partial curve, poor fit]"}
{"smiles": "COC[C@H]1CCCN1C(=O)CC[C@@H]1CNC(=O)[C@@H]2C[C@H](NC(=O)Nc3ccc(F)cc3F)CN12", "Potency": "inconclusive: 17.8 µM [inhibitor, partial curve, poor fit]"}
{"smiles": "O=C(CCNc1cnc2cnccn12)NC1CCN(Cc2ccccc2)CC1", "Potency": "active: 22.4 µM"}
{"smiles": "NC(=O)Cn1ccc2cc(OCC3CCN(C(=O)COc4ccccc4)CC3)cnc21", "Potency": "active: 35.5 µM"}
{"smiles": "Cc1cnn(CC(=O)N2CCC3(CC2)CN(c2ncccn2)CC3CO)c1", "note": "(stereo not given)", "Potency": "active: 35.5 µM"}
{"smiles": "CCn1cnc2c1c(=O)n(CC(=O)Nc1c(C)cccc1C)c(=O)n2Cc1ccccc1", "Potency": "inactive"}
{"smiles": "CCOc1ccc(C2c3c(-c4ccccc4)n[nH]c(=O)c3Nc3nnnn32)cc1", "note": "(stereo not given)", "Potency": "inconclusive: 35.5 µM [inhibitor, partial curve, poor fit]"}
{"smiles": "COc1ccc(-c2cnc3[nH]cc(CC(=O)Nc4cccc(N(C)C)c4)c3c2)cc1", "Potency": "inconclusive: 39.8 µM [inhibitor, partial curve, poor fit]"}
{"smiles": "COc1ccc(C(=O)/C(C#N)=C\\c2ccc(OC(F)F)c(OC)c2)cc1", "Potency": "inconclusive: 39.8 µM [inhibitor, single point]"}
{"smiles": "CCc1ccc(NC(=O)Cn2ccn3nc4c(c3c2=O)CCCCC4)cc1", "Potency": "inconclusive: 31.6 µM [inhibitor, partial curve, poor fit]"}
{"smiles": "Cc1ccc(C)c(C(=O)N2CC(c3nnc(-c4ccncc4)o3)C3(CCOCC3)C2)c1", "note": "(stereo not given)", "Potency": "inactive"}
{"smiles": "CCOc1ccc(/C(O)=C2\\C(=O)C(=O)NC2c2ccc(Cl)cc2)cc1", "note": "(stereo not given)", "Potency": "inconclusive: 31.6 µM [inhibitor, single point]"}
{"smiles": "Cc1ccc(OCCCCn2c(CCNC(=O)C(C)(C)C)nc3ccccc32)cc1", "Potency": "inactive"}
{"smiles": "C(=N\\Nc1cccc2cccnc12)/c1c[nH]c2ccccc12", "Potency": "inconclusive: 39.8 µM [inhibitor, single point]"}
{"smiles": "CCCC(C(=O)NCc1ccccn1)c1ccccc1", "note": "(stereo not given)", "Potency": "inactive"}
{"smiles": "CC(CO)(CO)NC(=O)c1ccc(C#Cc2cccc(F)c2)cn1", "Potency": "inconclusive: 20 µM [inhibitor, partial curve, poor fit]"}
{"smiles": "COc1cccc(-c2nn(C)c3sc(C(=O)N4CCN(c5cccc(C)c5)C(C)C4)cc23)c1", "note": "(stereo not given)", "Potency": "inconclusive: 22.4 µM [inhibitor, partial curve, poor fit]"}
{"smiles": "COc1cc2ccccc2cc1C(=O)Nc1nnn(C)n1", "Potency": "inconclusive: 12.6 µM [inhibitor, partial curve, poor fit]"}
{"smiles": "CN1CC2(CCN(C(=O)c3ccccc3-c3nn[nH]n3)CC2)CC1C(=O)O", "note": "(stereo not given)", "Potency": "inactive"}
{"smiles": "COc1ccc(/C=C/c2nn3c(-c4ccc5c(c4)OCO5)nnc3s2)cc1", "Potency": "inactive"}
{"smiles": "COc1ccccc1[C@@H]1CN(C(=O)CCc2scnc2C)C[C@H]1C(=O)O", "Potency": "inactive"}
{"smiles": "Cc1noc([C@@H]2CN(S(=O)(=O)c3cccnc3)C[C@H]2C(N)=O)n1", "Potency": "inactive"}
{"smiles": "CCc1noc(-c2nc(-c3ccc4c(c3)OCO4)no2)n1", "Potency": "inactive"}
{"smiles": "CN1CC(=O)N(C2CCC2)Cc2c1ncnc2N1CCN(c2ncccn2)CC1", "Potency": "inactive"}
{"smiles": "Cc1ccc(-c2noc([C@@H]3Cc4nc[nH]c4CN3Cc3ccc(C(=O)O)cc3)n2)cc1", "Potency": "active: 35.5 µM"}
{"smiles": "CC(C)(C)NC(=O)CSc1ncc(-c2cccc(Br)c2)o1", "Potency": "inactive"}
{"smiles": "CC(=O)Nc1ccc(NC(=O)CSCc2csc(-c3ccc(C)cc3)n2)cc1", "Potency": "inactive"}
{"smiles": "CC(=O)Nc1ccc(C(=O)NC2CCN(c3cc(-c4cccs4)[nH]n3)C2)cc1", "note": "(stereo not given)", "Potency": "active: 17.8 µM"}
{"smiles": "COc1cc(C(=O)N2CCc3c([nH]c4ccccc34)C2c2ccccc2)cc(OC)c1OC", "note": "(stereo not given)", "Potency": "inconclusive: 15.8 µM [inhibitor, partial curve, poor fit]"}
{"smiles": "O=C1/C(=C/c2ccccc2Br)Cc2ccccc21", "Potency": "inconclusive: 11.2 µM [inhibitor, partial curve, poor fit]"}
{"smiles": "Cc1ccc(NC(=O)c2ccc3c(c2)N(C)C2CCCCN2C3=O)cc1", "note": "(stereo not given)", "Potency": "inconclusive: 28.2 µM [inhibitor, partial curve, poor fit]"}
{"smiles": "COCCn1c(N2CCN(Cc3c(F)cccc3Cl)CC2)nc2c1c(=O)[nH]c(=O)n2C", "Potency": "inactive"}
{"smiles": "CCOc1ccc(C(C)=O)cc1COc1ccc2c(C)cc(=O)oc2c1", "Potency": "inactive"}
{"smiles": "COc1ccc(CCC(=O)N2c3ccccc3CC2c2nc(C3CC3)no2)cc1", "note": "(stereo not given)", "Potency": "inconclusive: 28.2 µM [inhibitor, single point]"}
{"smiles": "COc1ccc(N2CCN(C(=O)c3ccc4c(c3)CCN4S(C)(=O)=O)CC2)cc1", "Potency": "inconclusive: 14.1 µM [inhibitor, partial curve, poor fit]"}
